# Assay results taken from the supplement of paper PMC8728848.
# The list shows a part of the results.
# Experiments:
# Test in all cases: glycan array binding signal (z-score within array); higher = stronger binding
# Settings in all cases: glycan notation: IUPAC condensed, linker removed
# [1] = biological target: Fuc(a1-3)[Gal3S(b1-4)]GlcNAc
# Procedure, shortened: (§1)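 Glycan array data were curated from 3228 arrays in the Consortium for Functional Glycomics database and kept only where the protein sequence was available. Glycan names were converted to IUPAC-condensed notation, and columns mapping to the same glycan were averaged. The binding signal is a within-array Z-score, averaged across arrays of the same protein sequence at different concentrations or buffers and across linkers. Negative Z-scores can be read as non-binding.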
# [2] = biological target: Fuc(a1-3)[Gal3S(b1-4)]GlcNAc6S
# Procedure, shortened: as §1
# [3] = biological target: Fuc(a1-3)[GalNAc(b1-4)]GlcNAc
# Procedure, shortened: as §1
# [4] = biological target: Fuc(a1-3)[GalNAc(b1-4)]GlcNAc6S
# Procedure, shortened: as §1
# [5] = biological target: Fuc(a1-4)GlcNAc
# Procedure, shortened: as §1
# [6] = biological target: Fuc(b1-3)GlcNAc
# Procedure, shortened: as §1
# [7] = biological target: Gal(a1-2)Gal
# Procedure, shortened: as §1
# [8] = biological target: Gal(a1-3)Gal
# Procedure, shortened: as §1
# [9] = biological target: Gal(a1-3)Gal(b1-3)GlcNAc
# Procedure, shortened: as §1
# [10] = biological target: Gal(a1-3)Gal(b1-3)GlcNAc(b1-2)Man
# Procedure, shortened: as §1
# [11] = biological target: Gal(a1-3)Gal(b1-3)GlcNAc(b1-2)Man(a1-3)[Gal(a1-3)Gal(b1-3)GlcNAc(b1-2)Man(a1-6)]Man(b1-4)GlcNAc(b1-4)GlcNAc
# Procedure, shortened: as §1
# [12] = biological target: Gal(a1-3)Gal(b1-3)GlcNAc(b1-3)GalNAc
# Procedure, shortened: as §1
# [13] = biological target: Gal(a1-3)Gal(b1-3)GlcNAc(b1-6)GalNAc
# Procedure, shortened: as §1
# [14] = biological target: Gal(a1-3)Gal(b1-3)[Fuc(a1-4)]GlcNAc(b1-2)Man(a1-3)[Gal(a1-3)Gal(b1-3)[Fuc(a1-4)]GlcNAc(b1-2)Man(a1-6)]Man(b1-4)GlcNAc(b1-4)GlcNAc
# Procedure, shortened: as §1
# [15] = biological target: Gal(a1-3)Gal(b1-4)Glc
# Procedure, shortened: as §1
# [16] = biological target: Gal(a1-3)Gal(b1-4)GlcNAc
# Procedure, shortened: as §1
# [17] = biological target: Gal(a1-3)Gal(b1-4)GlcNAc(b1-2)Man
# Procedure, shortened: as §1
# [18] = biological target: Gal(a1-3)Gal(b1-4)GlcNAc(b1-2)Man(a1-3)[Gal(a1-3)Gal(b1-4)GlcNAc(b1-2)Man(a1-6)]Man(b1-4)GlcNAc(b1-4)GlcNAc
# Procedure, shortened: as §1
# [19] = biological target: Gal(a1-3)Gal(b1-4)GlcNAc(b1-3)GalNAc
# Procedure, shortened: as §1
# [20] = biological target: Gal(a1-3)Gal(b1-4)GlcNAc(b1-6)GalNAc
# Procedure, shortened: as §1
# [21] = biological target: Gal(a1-3)Gal(b1-4)[Fuc(a1-3)]GlcNAc
# Procedure, shortened: as §1
# [22] = biological target: Gal(a1-3)Gal(b1-4)[Fuc(a1-3)]GlcNAc(b1-2)Man(a1-3)[Gal(a1-3)Gal(b1-4)[Fuc(a1-3)]GlcNAc(b1-2)Man(a1-6)]Man(b1-4)GlcNAc(b1-4)GlcNAc
# Procedure, shortened: as §1
# [23] = biological target: Gal(a1-3)GalNAc
# Procedure, shortened: as §1
# [24] = biological target: Gal(a1-3)[Gal(a1-4)]Gal(b1-4)GlcNAc
# Procedure, shortened: as §1
# [25] = biological target: Gal(a1-4)Gal(b1-3)GlcNAc(b1-2)Man(a1-3)[Gal(a1-4)Gal(b1-3)GlcNAc(b1-2)Man(a1-6)]Man(b1-4)GlcNAc(b1-4)GlcNAc
# Procedure, shortened: as §1
# [26] = biological target: Gal(a1-4)Gal(b1-4)Glc
# Procedure, shortened: as §1
# [27] = biological target: Gal(a1-4)Gal(b1-4)GlcNAc
# Procedure, shortened: as §1
# [28] = biological target: Gal(a1-4)Gal(b1-4)GlcNAc(b1-2)Man(a1-3)[Gal(a1-4)Gal(b1-4)GlcNAc(b1-2)Man(a1-6)]Man(b1-4)GlcNAc(b1-4)GlcNAc
# Procedure, shortened: as §1
# [29] = biological target: Gal(a1-4)Gal(b1-4)GlcNAc(b1-3)Gal(b1-4)Glc
# Procedure, shortened: as §1
# [30] = biological target: Gal(a1-4)GlcNAc
# Procedure, shortened: as §1
# [31] = biological target: Gal(a1-6)Glc
# Procedure, shortened: as §1
# [32] = biological target: Gal(b1-2)Gal
# Procedure, shortened: as §1
# [33] = biological target: Gal(b1-3)Gal
# Procedure, shortened: as §1
# [34] = biological target: Gal(b1-3)Gal(b1-4)GlcNAc
# Procedure, shortened: as §1
# [35] = biological target: Gal(b1-3)GalNAc
# Procedure, shortened: as §1
# [36] = biological target: Gal(b1-3)GalNAc(a1-3)[Fuc(a1-2)]Gal(b1-4)Glc
# Procedure, shortened: as §1
# [37] = biological target: Gal(b1-3)GalNAc(a1-3)[Fuc(a1-2)]Gal(b1-4)GlcNAc
# Procedure, shortened: as §1
binder,measurement,setting,value
"Apa (Mycobacterium tuberculosis), Rv1860 (protein) MHQVDPNLTRRKGRLAALAIAAMASASLVTVAVPATANADPEPAPPVPTTAASPPSTAAAPPAPATPVAPPPPAAANTPNAQPGDPNAAPPPADPNAPPPPVIAPNAPQPVRIDNPVGGFSFALPAGWVESDAAHFDYGSALLSKTTGDPPFPGQPPPVANDTRIVLGRLDQKLYASAEATDSKAAARLGSDMGEFYMPYPGTRINQETVSLDANGVSGSASYYEVKFSDPSKPNGQIWTGVIGSPAANAPDAGPPQRWFVVWLGTANNPVDKGAAKALAESIRPLVAPPPAPAPAPAEPAPAPAPAGEVAPTPTTPTPQRTLPA",glycan array binding signal (z-score),[1],-0.215
same,glycan array binding signal (z-score),[2],-0.076
same,glycan array binding signal (z-score),[3],0.301
same,glycan array binding signal (z-score),[4],-0.267
same,glycan array binding signal (z-score),[5],-0.036
same,glycan array binding signal (z-score),[6],-0.143
same,glycan array binding signal (z-score),[7],0.436
same,glycan array binding signal (z-score),[8],-0.259
same,glycan array binding signal (z-score),[9],-0.245
same,glycan array binding signal (z-score),[10],0.743
same,glycan array binding signal (z-score),[11],0.147
same,glycan array binding signal (z-score),[12],-0.04
same,glycan array binding signal (z-score),[13],-0.171
same,glycan array binding signal (z-score),[14],0.382
same,glycan array binding signal (z-score),[15],-0.055
same,glycan array binding signal (z-score),[16],-0.079
same,glycan array binding signal (z-score),[17],-0.089
same,glycan array binding signal (z-score),[18],0.299
same,glycan array binding signal (z-score),[19],-0.37
same,glycan array binding signal (z-score),[20],-0.2
same,glycan array binding signal (z-score),[21],-0.489
same,glycan array binding signal (z-score),[22],0.302
same,glycan array binding signal (z-score),[23],-0.131
same,glycan array binding signal (z-score),[24],-0.069
same,glycan array binding signal (z-score),[25],0.25
same,glycan array binding signal (z-score),[26],-0.349
same,glycan array binding signal (z-score),[27],0.241
same,glycan array binding signal (z-score),[28],0.346
same,glycan array binding signal (z-score),[29],-0.125
same,glycan array binding signal (z-score),[30],-0.298
same,glycan array binding signal (z-score),[31],0.103
same,glycan array binding signal (z-score),[32],-0.447
same,glycan array binding signal (z-score),[33],-0.071
same,glycan array binding signal (z-score),[34],-0.471
same,glycan array binding signal (z-score),[35],-0.031
same,glycan array binding signal (z-score),[36],-0.368
same,glycan array binding signal (z-score),[37],-0.01
